Data from PubChem BioAssay AID1671194 (National Center for Advancing Translational Sciences (NCATS), 2021).
In all, about 140,000 compounds went through this assay and about 240 (0.17%) were called active. The inconclusive results got no clear call from the source; some entries with a clear call stand among them for comparison. Calls follow the shape of the dose curve; as a rule, active = well fitted inhibition curve with a large enough effect; inconclusive = small, poorly fitted or top-dose-only effect; inactive = no such curve, though single readings can be large or run the other way. Potencies beside an inconclusive call are fits to weak or partial responses and may not hold up.

Assay: Primary qHTS assay for inhibitors of alpha-synuclein gene (SNCA) expression; also: nearly all actives have a fitted effect of over 45% in size
Settings: HEK-293 SNCA-luciferase knock-in, luminescence, 24 h; series mostly up to 57.2 µM
Potency is read from the fitted curve at half-maximal effect; tags tell the direction and shape of the fitted curve.

Which Potency does the source give for Cc1cc(C(=O)N2[C@H]3CC[C@@H]2c2cnc(-c4ccc(F)cc4)nc2C3)n[nH]1 here?
The Potency was “inactive”.

With COc1cccc(CC(=O)N2[C@H]3CC[C@@H]2c2cnc(-c4ccc(F)cc4)nc2C3)c1 as the compound, how does the Potency read?
Its Potency is inconclusive: 39.8 µM [inhibitor, single point].

For CCNC(=O)NC[C@H]1C[C@@H]2CCN1C[C@@H]2c1cc(-c2ccc(OC)c(OC)c2)nc(C)n1, which Potency is on record?
The Potency was “inactive”.

With CN1CCN(C(=O)Cc2c[nH]c3ncc(-c4cccc(O)c4)cc23)CC1 as the compound, how does the Potency read?
The Potency was inconclusive: 12.6 µM [inhibitor, single point].

Which Potency does the source give for O=c1c2ccccc2nc(/C=C/c2ccccc2)n1-c1ccccc1F here?
Its Potency is inconclusive: 7.08 µM [inhibitor, single point].

With CC[C@H]1CN2CC[C@H]1C[C@@H]2CNC(=O)CC(C)(C)CC(=O)O as the compound, how does the Potency read?
The Potency was “inactive”.

Which Potency does the source give for CNCc1cccnc1 here?
The Potency was “inactive”.

Which Potency does the source give for CCCN1CCNc2cc(Nc3ccccc3)ncc2C1 here?
The Potency was “inactive”.

With CCN(CC)C[C@H]1CN2CC[C@H]1C[C@@H]2CNC(=O)Nc1ccccc1 as the compound, how does the Potency read?
Its Potency is “inactive”.

Which Potency does the source give for COc1cc2c(cc1Oc1cccc(N(C)C)c1)NC(=O)C21CCN(C(=O)C(C)C)CC1 here?
The Potency was inconclusive: 5.01 µM [inhibitor, partial curve, poor fit].

With Cn1nc(-c2ccc3ccccc3c2)cc1[C@H]1CN2CC[C@H]1C[C@@H]2CNS(=O)(=O)c1cccs1 as the compound, how does the Potency read?
The Potency was “inactive”.

Which Potency does the source give for CN1CCN(C(=O)Cc2c[nH]c3ncc(-c4ccc(Cl)cc4)cc23)CC1 here?
The Potency was “inactive”.

With OCC1CN(c2ncccn2)CC12CCNCC2 (centres undefined) as the compound, how does the Potency read?
The Potency was “inactive”.

Which Potency does the source give for O=C1CO[C@H]2CN(Cc3ncc[nH]3)C[C@H]2N1Cc1cccnc1 here?
Its Potency is “inactive”.

For Cc1ncsc1CN1CC(CO)C2(CCNCC2)C1 (centres undefined), which Potency is on record?
The Potency was inconclusive: 39.8 µM [inhibitor, single point].

For COc1cc2c(cc1Oc1cccc(N(C)C)c1)NC(=O)C21CCN(Cc2ccccc2)CC1, which Potency is on record?
The Potency was inconclusive: 11.2 µM [inhibitor, partial curve, poor fit].

With CC[C@H]1CN2CC[C@H]1C[C@@H]2CNC(=O)Nc1ccc(Oc2ccccc2)cc1 as the compound, how does the Potency read?
The Potency was inconclusive: 44.7 µM [inhibitor, single point].

Which Potency does the source give for O=C(C1CCC1)N1[C@H]2CC[C@@H]1c1cnc(-c3ccc(F)cc3)nc1C2 here?
The Potency was “inactive”.

Which Potency does the source give for Cc1ccc(-c2ccccc2CN2CCN(C(=O)Cc3ccc(F)cc3)CC2)cc1Cl here?
The Potency was inconclusive: 28.2 µM [inhibitor, single point].

For O=c1c2ccccc2nc(/C=C/c2ccccc2O)n1-c1ccc(Br)cc1, which Potency is on record?
Its Potency is inconclusive: 39.8 µM [inhibitor, single point].

Which Potency does the source give for CCCS(=O)(=O)NC[C@H]1C[C@@H]2CCN1C[C@@H]2c1cc(-c2ccccc2)nc(C)n1 here?
Its Potency is inconclusive: 25.1 µM [inhibitor, partial curve, poor fit].

Which Potency does the source give for CN(Cc1ccccc1)Cc1cn(C[C@H]2CC3CCN2C[C@@H]3C(=O)NC2CC2)nn1 (some centres undefined) here?
The Potency was inconclusive: 56.2 µM [inhibitor, single point].

With CCOC(=O)[C@H]1CN(C(=O)c2cc3ccccc3oc2=O)[C@]2(C)C(=O)N(CCO)c3ccccc3[C@H]12 as the compound, how does the Potency read?
Its Potency is “inactive”.

With CCC(c1cccs1)N1C(=O)[C@H]2CNC[C@H]2C1=O (some centres undefined) as the compound, how does the Potency read?
The Potency was inconclusive: 35.5 µM [inhibitor, partial curve, poor fit].

With CC[C@H]1CN2CC[C@H]1C[C@@H]2CN(Cc1ccc(SC)cc1)Cc1ccc(SC)cc1 as the compound, how does the Potency read?
The Potency was inconclusive: 31.6 µM [inhibitor, single point].

For COc1cc2c(cc1OCc1ccccc1)N(C(=O)c1cnn(C)c1)CC21CCN(C)CC1, which Potency is on record?
Its Potency is “inactive”.

Which Potency does the source give for CN1CCNc2cc(Nc3ccc(F)cc3)ncc2C1 here?
Its Potency is “inactive”.

Which Potency does the source give for CNc1nc(N2C[C@H]3CN(CCOC)C[C@@]3(C(=O)O)C2)ncc1F here?
The Potency was inconclusive: 5.01 µM [inhibitor, full curve, poor fit].

Which Potency does the source give for COc1ccc([C@@H]2CN(c3nccc(C)n3)[C@@H]3C4CCN(CC4)[C@@H]32)cc1 here?
The Potency was inconclusive: 25.1 µM [inhibitor, single point].

With COc1ccc(CCNCc2ccc3c(c2)n(C)c(=O)n3C)cc1 as the compound, how does the Potency read?
Its Potency is inconclusive: 4.47 µM [inhibitor, full curve].

Which Potency does the source give for Cc1ccc(C(=O)NC[C@H]2C[C@@H]3CCN2C[C@@H]3c2cc(-c3ccc(F)cc3)nn2C)cc1 here?
Its Potency is inconclusive: 31.6 µM [inhibitor, single point].

With O=C1Nc2ccccc2CC12CN(CC1CC1)C2 as the compound, how does the Potency read?
Its Potency is inconclusive: 70.8 µM [inhibitor, single point].

For COCC1(CNC2CCN(C)CC2)C[C@@H](O)[C@@H](O)C1 (some centres undefined), which Potency is on record?
Its Potency is “inactive”.

Which Potency does the source give for O=C(c1ccsc1)N1CC(CO)C2(CCNCC2)C1 (centres undefined) here?
The Potency was “inactive”.

With COc1ccc(NC(=O)CCc2nc(C3=CCN(Cc4cccc(Cl)c4)CC3)no2)cc1OC as the compound, how does the Potency read?
The Potency was inconclusive: 7.94 µM [inhibitor, single point].

With C=CC[C@]1(O)CC[C@H]2[C@@H]3CCC4=CC(=O)CCC4=C3C=C[C@@]21C as the compound, how does the Potency read?
Its Potency is “inactive”.

For CN1CCN(C(=O)Cc2cccn2-c2ccc(F)cc2)CC1, which Potency is on record?
Its Potency is “inactive”.

With O=C(O)C1=NOC2CN(CC3CCCC3)CC12 (centres undefined) as the compound, how does the Potency read?
Its Potency is “inactive”.

With CC(C)(O)c1cn(C[C@H]2C[C@@H]3CCN2C[C@@H]3C(=O)Nc2ccccc2)nn1 as the compound, how does the Potency read?
The Potency was inconclusive: 12.6 µM [inhibitor, partial curve, poor fit].

Which Potency does the source give for COc1cc2c(cc1OCC1CC1)NC(=O)C21CCN(c2ncc(C(C)C)cn2)CC1 here?
Its Potency is inconclusive: 56.2 µM [inhibitor, single point].

For Cc1ccc(C(=O)NC[C@H]2C[C@@H]3CCN2C[C@@H]3c2cc(-c3ccccc3)nn2C)cc1, which Potency is on record?
Its Potency is inconclusive: 56.2 µM [inhibitor, single point].

For COc1cc2c(cc1OCC1CCCC1)N([S+](=O)([O-])c1cccc(C(F)(F)F)c1)CC21CCN(CC(=O)O)CC1, which Potency is on record?
Its Potency is “inactive”.

Which Potency does the source give for CN(C)CC(=O)Nc1ccc2n(c1=O)C[C@H]1C[C@@H]2CN(C(=O)c2ccc(F)cc2)C1 here?
Its Potency is “inactive”.

With O=C(Nc1ccccc1F)N1[C@H]2CC[C@@H]1c1cncnc1C2 as the compound, how does the Potency read?
The Potency was “inactive”.

With CC(C)NC(=O)[C@H]1CN2CCC1C[C@@H]2Cn1cc(CCO)nn1 (some centres undefined) as the compound, how does the Potency read?
The Potency was inconclusive: 2.82 µM [inhibitor, partial curve, poor fit].

For COc1ccc(CN2CCC3(CC2)C(=O)Nc2ccccc23)cc1, which Potency is on record?
The Potency was “inactive”.

With CC(=O)N1CC2(CCN(Cc3cccnc3)C2)Cc2ccccc21 (centres undefined) as the compound, how does the Potency read?
Its Potency is inconclusive: 11.2 µM [inhibitor, single point].

With Cn1nc(-c2ccco2)cc1[C@H]1CN2CC[C@H]1C[C@@H]2CNC(=O)c1cccs1 as the compound, how does the Potency read?
Its Potency is inconclusive: 63.1 µM [inhibitor, partial curve, poor fit].

With COc1cc2c(cc1-c1cccnc1OC)NC(=O)C21CCN(C(C)=O)CC1 as the compound, how does the Potency read?
The Potency was “inactive”.

For Cc1ccccc1-n1c(/C=C/c2ccc(O)cc2)nc2ccccc2c1=O, which Potency is on record?
The Potency was inconclusive: 20 µM [inhibitor, partial curve, poor fit].

For CC(C)CCN1C[C@@H]2C(=O)N(C)C(=O)[C@@H]2C1, which Potency is on record?
The Potency was inconclusive: 17.8 µM [inhibitor, single point].

Which Potency does the source give for CSCC(=O)N1C[C@@H]2C[C@H](C1)c1c(-c3ccc(NC(C)=O)cc3)ccc(=O)n1C2 here?
Its Potency is “inactive”.

Which Potency does the source give for CC(=O)N1C[C@@H]2C[C@H](C1)c1ccc(NC(=O)c3ccc(F)cc3)c(=O)n1C2 here?
Its Potency is “inactive”.

Which Potency does the source give for CO[C@H]1CC=C2CCN3CCC4=C(CC(=O)OC4)[C@]23C1 here?
Its Potency is inconclusive: 5.62 µM [inhibitor, full curve].

With Cn1nc(-c2cccs2)cc1[C@H]1CN2CC[C@H]1C[C@@H]2CNC(=O)NCc1ccccc1 as the compound, how does the Potency read?
Its Potency is inconclusive: 2.82 µM [inhibitor, single point].

Which Potency does the source give for CCOC(=O)[C@H]1CN(C(=O)NCc2ccccc2)[C@]2(C)C(=O)N(CC(=O)N(C)C)c3ccccc3[C@H]12 here?
The Potency was “inactive”.

With CCOCCCNC(=O)N1[C@H]2CC[C@@H]1c1cnc(-c3ccc(F)cc3)nc1C2 as the compound, how does the Potency read?
Its Potency is inconclusive: 14.1 µM [inhibitor, partial curve, poor fit].

Which Potency does the source give for O=C1c2ccccc2C(=O)C1C(=O)C(c1ccccc1)c1ccccc1 here?
Its Potency is “inactive”.

With COc1cc2c(cc1Oc1ccccc1)NC(=O)C21CCN(C(=O)c2cnccn2)CC1 as the compound, how does the Potency read?
The Potency was “inactive”.

With COc1cc2c(cc1Oc1ccccc1)NC(=O)C21CCN(C(=O)C(C)C)CC1 as the compound, how does the Potency read?
The Potency was “inactive”.

With CN1CCN(C(=O)CCc2ccncc2)CC12CCNCC2 as the compound, how does the Potency read?
The Potency was inconclusive: 8.91 µM [inhibitor, single point].

For N#Cc1ccc(CN2CC3(CCNCC3)C2)cc1, which Potency is on record?
Its Potency is inconclusive: 39.8 µM [inhibitor, single point].

With CC(C)NC(=O)OC[C@H]1C[C@@H]2CCN1C[C@@H]2c1cc(-c2ccc3ccccc3c2)nn1C as the compound, how does the Potency read?
The Potency was inconclusive: 56.2 µM [inhibitor, single point].

Which Potency does the source give for CCN(CC)C[C@H]1CN2CC[C@H]1C[C@@H]2CNS(=O)(=O)c1ccc(Cl)cc1 here?
Its Potency is “inactive”.

For Cn1cc(CN2CCN(C(=O)Cc3ccccc3)CC2)ccc1=O, which Potency is on record?
Its Potency is inconclusive: 5.62 µM [inhibitor, full curve, poor fit].

For O=C(c1ccccc1)N1C[C@@H]2C[C@H](C1)c1ccc(C3CCCCC3)c(=O)n1C2, which Potency is on record?
Its Potency is “inactive”.

With Cc1ccccc1C(=O)N1CCC2(CC1)c1nccn1-c1ccccc1CN2CC(C)C as the compound, how does the Potency read?
The Potency was inconclusive: 39.8 µM [inhibitor, single point].

Which Potency does the source give for Cc1ccc(S(=O)(=O)NC[C@H]2C[C@@H]3CCN2C[C@@H]3CN2CCc3ccccc32)cc1 here?
Its Potency is inconclusive: 56.2 µM [inhibitor, single point].

For CC(C)NC(=O)NC[C@H]1C[C@@H]2CCN1C[C@@H]2c1cc(-c2ccc3ccccc3c2)nn1C, which Potency is on record?
Its Potency is “inactive”.
